Results: patent US11498899B2, “Nitrone herbicides” (FMC Corporation, priority 2016, dated 2022)

System: sedge, umbrella (small-flower umbrella sedge, Cyperus difformis)
Assay: Test B flooded paddy test, visual rating 0-100
Details: Flood, 250 g ai/ha, applied to paddy water, rated after 13 to 15 days

Row | Compound | Sedge, Umbrella plant response rating (0 to 100 scale)
1 | CC1=[N+]([O-])C(C(=O)Nc2cccnc2F)C(c2ccc(C(F)(F)F)cc2)C1 (racemic) [Compound 41] | 0
2 | CC1=[N+]([O-])[C@@H](C(=O)Nc2cccc(F)c2F)[C@H](c2cccc(OC(C)C)c2)C1 [Compound 55] | 0
3 | CC1=[N+]([O-])C(C(=O)Nc2cccc(F)c2F)C(c2ccc(Cl)c(F)c2)C1 (racemic) [Compound 107] | 0
4 | CC1=[N+]([O-])C(C(=O)Nc2cccc(F)c2F)C(c2cc(F)c(F)c(F)c2)C1 (stereo not drawn) [Compound 95] | 0
5 | CC1=[N+]([O-])C(C(=O)Nc2cccc(F)c2F)C(c2cccc(Cl)n2)C1 (stereo not drawn) [Compound 89] | 0
6 | CC1=[N+]([O-])C(C(=O)Nc2cccc(F)c2F)C(c2ccc(C(F)(F)F)cn2)C1 (racemic) [Compound 88] | 0
7 | CC1=[N+]([O-])C(C(=O)Nc2cccc(F)c2F)C(c2cccc(C)c2)C1 (racemic) [Compound 15] | 0
8 | CC1=[N+]([O-])C(C(=O)Nc2cccc(F)c2F)C(c2cc(C)n(Cc3ccc(Cl)cc3)c(=O)c2)C1 (racemic) [Compound 86] | 0
9 | CC1=[N+]([O-])C(C(=O)Nc2cccc(F)c2F)C(c2ccc(C#N)cc2)C1 (racemic) [Compound 22] | 0
10 | CC1=[N+]([O-])C(C(=O)Nc2cccc(F)c2F)C(c2ccc(Br)cn2)C1 (racemic) [Compound 66] | 0
11 | CC1=[N+]([O-])[C@H](C(=O)Nc2cccc(F)c2F)[C@@H](c2ccc(F)c(OC(F)(F)C(F)F)c2)C1 [Compound 54, (2S,3R)—N-(2,3-Difluorophenyl)-3-[4-fluoro-3-(1,1,2,2-tetrafluoroethyoxy)phenyl]-3,4-dihydro-5-methyl-2H-pyrrole-2-carboxamide 1-oxide] | 0
12 | CC1=[N+]([O-])C(C(=O)Nc2cccc(F)c2F)C(c2ccc(F)c(Cl)c2)C1 (racemic) [Compound 63] | 0
13 | CC1=[N+]([O-])C(C(=O)Nc2cccc(F)c2F)C(c2ccc(F)c(F)c2)C1 (racemic) [Compound 10] | 0
14 | CC1=[N+]([O-])C(C(=O)Nc2cccc(F)c2F)C(c2ccccc2C)C1 (racemic) [Compound 11] | 0
15 | CC1=[N+]([O-])C(C(=O)Nc2ccccc2[S+](C)[O-])C(c2ccc(C(F)(F)F)cc2)C1 (racemic) [Compound 44] | 0
16 | CC1=[N+]([O-])C(C(=O)Nc2cccc(F)c2F)C(c2ccc(C)c(C(F)(F)F)c2)C1 (racemic) [Compound 62] | 0
17 | CC1=[N+]([O-])C(C(=O)Nc2cccc(F)c2F)C(c2ccc(C)c(Br)c2)C1 (racemic) [Compound 71] | 0
18 | CC1=[N+]([O-])[C@@H](C(=O)Nc2cccc(F)c2F)[C@H](c2ccc(C(F)(F)F)cc2)C1 (relative stereo) [Compound 2, trans-N-(2,3-difluorophenyl)-3,4-dihydro-5-methyl-3-[4-(trifluoromethyl)phenyl]-2H-pyrrole-2-carboxamide 1-oxide] | 0
19 | CC1=[N+]([O-])C(C(=O)Nc2cccc(F)c2F)C(c2cccc(C(F)(F)F)n2)C1 (stereo not drawn) [Compound 90] | 0

Row | Compound | Sedge, Umbrella plant response rating (0 to 100 scale)
20 | CCc1cc(CC)cc(C2CC(C)=[N+]([O-])C2C(=O)Nc2cccc(F)c2F)c1 (racemic) [Compound 109] | 0
21 | CC1=[N+]([O-])C(C(=O)Nc2cccc(F)c2F)C(c2ccccc2)C1 (racemic) [Compound 16] | 0
22 | CC1=[N+]([O-])C(C(=O)Nc2cccc(F)c2F)C(c2cc(C)ccc2C)C1 (racemic) [Compound 79] | 0
23 | CC1=[N+]([O-])C(C)(C(=O)Nc2cccc(F)c2F)C(c2ccc(C(F)(F)F)cc2)C1 (racemic) [Compound 1] | 0
24 | CC1=[N+]([O-])C(C(=O)Nc2cccc(F)c2F)C(c2ccc(F)cc2)C1 (racemic) [Compound 9] | 0
25 | CC1=[N+]([O-])[C@@H](C(=O)Nc2cccc(F)c2F)[C@H](c2ccc(F)c(F)c2)C1 [Compound 39] | 0
26 | CCOc1cc(OC)cc(C2CC(C)=[N+]([O-])C2C(=O)Nc2cccc(F)c2F)c1 (racemic) [Compound 116] | 0
27 | CC1=[N+]([O-])[C@@H](C(=O)Nc2cccc(F)c2F)[C@H](c2cccc(C(F)(F)F)c2)C1 [Compound 45] | 0
28 | CC1=[N+]([O-])C(C(=O)Nc2ccccc2S(C)(=O)=O)C(c2ccc(C(F)(F)F)cc2)C1 (racemic) [Compound 43] | 0
29 | CC1=[N+]([O-])C(C(=O)Nc2cccc(F)c2F)C(c2cccc(C(C)C)c2)C1 (racemic) [Compound 12] | 0
30 | CC1=[N+]([O-])C(C(=O)Nc2cccc(F)c2F)C(c2cccc(C3OCCO3)c2)C1 (racemic) [Compound 105] | 0
31 | CC1=[N+]([O-])C(C(=O)Nc2cccc(F)c2F)C(c2cc(C(F)(F)F)ccc2C)C1 (stereo not drawn) [Compound 98] | 0
32 | CC1=[N+]([O-])C(C(=O)Nc2cccc(F)c2F)C(c2cccc(C)n2)C1 (racemic) [Compound 49] | 0
33 | O=C(Nc1cccc(F)c1F)C1C(c2ccccc2)CC(C(F)(F)F)=[N+]1[O-] (racemic) [Compound 35] | 0
34 | CC1=[N+]([O-])C(C(=O)Nc2cccc(F)c2F)C(c2c(F)cccc2Cl)C1 (racemic) [Compound 14] | 0
35 | CC1=[N+]([O-])C(C(=O)Nc2ccccc2C#N)C(c2ccc(C(F)(F)F)cc2)C1 (racemic) [Compound 32] | 0
36 | CC1=[N+]([O-])C(C(=O)Nc2cccc(F)c2F)C(c2cc(F)c(C(F)(F)F)c(F)c2)C1 (racemic) [Compound 114] | 0
37 | CC1=[N+]([O-])C(C(=O)Nc2cccc(C#N)c2F)C(c2ccc(C(F)(F)F)cc2)C1 (racemic) [Compound 28] | 0
38 | CC1=[N+]([O-])C(C(=O)Nc2cccc(F)c2F)C(c2cccc(Br)c2)C1 (racemic) [Compound 19] | 0

Row | Compound | Sedge, Umbrella plant response rating (0 to 100 scale)
39 | CC1=[N+]([O-])C(C(=O)Nc2cccc(F)c2C#N)C(c2ccc(C(F)(F)F)cc2)C1 (racemic) [Compound 34] | 0
40 | CC1=[N+]([O-])C(C(=O)Nc2cccc(F)n2)C(c2ccc(C(F)(F)F)cc2)C1 (racemic) [Compound 47] | 0
41 | CC1=[N+]([O-])C(C(=O)Nc2cccc(F)c2F)C(c2cccc(Cl)c2F)C1 (stereo not drawn) [Compound 99] | 0
42 | CC1=[N+]([O-])C(C(=O)Nc2cccc(F)c2F)C(c2ccccc2F)C1 (racemic) [Compound 21] | 0
43 | CC1=[N+]([O-])C(C(=O)Nc2cccc(F)c2F)C(c2cccc(C)c2C)C1 (racemic) [Compound 77] | 0
44 | COc1cc(C2CC(C)=[N+]([O-])C2C(=O)Nc2cccc(F)c2F)ccc1C(F)(F)F (stereo not drawn) [Compound 100] | 0
45 | CSc1ccccc1NC(=O)C1C(c2ccc(C(F)(F)F)cc2)CC(C)=[N+]1[O-] (racemic) [Compound 29] | 0
46 | CC1=[N+]([O-])C(C(=O)Nc2cccc(F)c2F)C(c2ccc(F)c(Oc3ncc(F)cn3)c2)C1 (racemic) [Compound 52] | 0
47 | CC1=[N+]([O-])C(C(=O)Nc2cccc(F)c2F)C(c2cc(C)cc(C(F)(F)F)c2)C1 (stereo not drawn) [Compound 92] | 25
48 | CC1=[N+]([O-])C(C(=O)Nc2cccc(F)c2F)C(c2cc(F)cc(Oc3ccc(Cl)nc3)c2)C1 (racemic) [Compound 50] | 0
49 | CC1=[N+]([O-])C(C(=O)Nc2ccc(F)c(F)c2F)C(c2ccc(C(F)(F)F)cc2)C1 (racemic) [Compound 38] | 0
50 | CC1=[N+]([O-])C(C(=O)Nc2cccc(F)c2F)C(c2cc(C)cc(F)c2)C1 (racemic) [Compound 103] | 0
51 | CC1=[N+]([O-])C(C(=O)Nc2cccc(F)c2F)C(c2cc(C(F)(F)F)cc(C(F)(F)F)c2)C1 (racemic) [Compound 110] | 0
52 | CC1=[N+]([O-])C(C(=O)Nc2cccc(F)c2F)C(c2ccc(C(F)(F)F)nc2)C1 (racemic) [Compound 60] | 0
53 | COc1cc(C2CC(C)=[N+]([O-])C2C(=O)Nc2cccc(F)c2F)cc(C)n1 (racemic) [Compound 57] | 0
54 | CC1=[N+]([O-])C(C(=O)Nc2ccc(F)cc2F)C(c2ccc(C(F)(F)F)cc2)C1 (racemic) [Compound 46] | 0
55 | CC1=[N+]([O-])C(C(=O)Nc2cccc(F)c2F)C(c2cc(C)c(F)c(C)c2)C1 (racemic) [Compound 111] | 0
56 | CC1=[N+]([O-])C(C(=O)Nc2cccc(F)c2F)C(c2cc(C)cc(CF)c2)C1 (racemic) [Compound 108] | 0
57 | CC1=[N+]([O-])[C@H](C(=O)Nc2cccc(F)c2F)[C@@H](c2ccc(C(F)(F)F)c(F)c2)C1 (relative stereo) [Compound 61, rel-(2S,3R)—N-(2,3-Difluorophenyl)-3-[3-fluoro-4-(trifluoromethyl)phenyl]-3,4-dihydro-5-methyl-2H-pyrrole-2-carboxamide 1-oxide] | 0
